Drawing on publication PMC9574860, “Chemical Toolkit for PARK7: Potent, Selective, and High-Throughput” (Journal of Medicinal Chemistry, 2022), this text covers Inhibition % for 77 compounds.

Screen size: about 7,900 compounds; about 400 (5.1%) showed an effect of 50% or more. This is one part of the list.

Sequence of Parkinson's disease protein 7 (PARK7/DJ1) (Q99497 whole entry, looked up, the tested form may be a part): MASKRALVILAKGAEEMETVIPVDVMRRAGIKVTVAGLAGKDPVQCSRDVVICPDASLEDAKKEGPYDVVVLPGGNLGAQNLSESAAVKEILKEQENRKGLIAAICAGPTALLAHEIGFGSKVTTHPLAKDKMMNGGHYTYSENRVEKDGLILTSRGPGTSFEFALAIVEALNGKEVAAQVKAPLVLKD

This assay concerns the target Parkinson's disease protein 7 (PARK7/DJ1) (human, UniProt Q99497). In words: primary screen, percent inhibition; read as competition with a fluorescent probe by fluorescence polarization; higher = more effect of the substance. As to conditions: 100 µM. The procedure, abridged:
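Covalent fragments at 100 μM final were incubated 2 h with 0.2 μM PARK7, then 20 nM probe JYQ-107 added for a further 2 h. Fluorescence polarization read at 480/520 nm; relative FP loss versus reference controls gave remaining enzyme activity.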
For the compound `CC1(C)COC(=O)C1NC(=O)Nc1ccc(C2CC2)nn1` (centres unmarked), the Inhibition % amounted to 8.72%.
With `O=S(=O)(C=Cc1ccccc1Cl)Nc1ccncc1` the figure was 10.1%.
`N#CC(=Cc1cccnc1)C(=O)NC1CCCCC1`: the Inhibition % is recorded as 3.87%.
To `C=CC(=O)Nc1cccc(-c2noc(C3CCCO3)n2)c1` (centres unmarked) belongs 5.67%; to `COc1ccc(OC)c(C(C)NC(=O)CCl)c1` (centres unmarked), 11.2%; to `Cc1ccc(Nc2nccnc2C#N)cc1C`, 5.08%.
Turning to `Cc1cc(C=C(C#N)C(=O)O)c(C)n1CC(C)C`, the Inhibition % was determined as 8.48%.
With `C=CC(=O)N1CCCCCC1c1noc(-c2cnn(C)c2)n1` (centres unmarked) the figure was 8.62%; with `COc1cccc(SCCN2C(=O)CCC2=O)c1`, 5.57%; with `C=CC(=O)N1CCN(C)c2cc(F)ccc21`, 14.6%.
To `Cc1ccc(N(CCC#N)C(=O)CCl)cc1C` belongs 15.3%; to `CN(Cc1c(F)cccc1Cl)C(=O)Cn1cnc(C#N)n1`, 10.3%.
To `Cc1conc1NS(=O)(=O)c1ccc(S(=O)(=O)F)cc1` belongs 27%; to `C=CC(=O)NCC(=O)N1Cc2ccccc2C1`, 5.85%.
On to `CCNC(=O)C(C#N)=Cc1ccc(O)c(OCC)c1`, for which the Inhibition % is on record as -0.455%.
Turning to `Cl.Nc1cccc(-c2noc(=O)[nH]2)c1`, the Inhibition % stood at 17.1%.
To `O=C(CCl)N1CCN(S(=O)(=O)c2cccc(F)c2)CC1` belongs 5.99%; to `CN(C)CCOc1ccc(B2OC(C)(C)C(C)(C)O2)cc1`, 3.21%; to `CCc1cccc(NC(=O)CCl)c1`, 14.1%.
With `Cc1ccccc1N1C(=O)CN=C1S` the figure was 2.06%.
With `CS(=O)(=O)OCC1CCC(F)(F)C1` (centres unmarked), the Inhibition % was 3.17%.
With `COc1cccc2c1N(C(=O)CN1CCSC1=O)CCC2` the figure was 3.52%; with `CC(C)(C(=O)CCl)N1C(=O)c2ccccc2C1=O`, 5.76%; with `N#CN(Cc1ccon1)c1cccc(F)c1`, 7.1%.
With `Cc1ccc(F)c(N(C#N)Cc2nnc(C)o2)c1` the figure was 69%; with `C=CC(=O)NC(c1ccc(C)cc1)C(C)S(C)(=O)=O` (centres unmarked), 2.52%.
With `O=C(C1CCOCC1)N1CC(S(=O)(=O)F)C1` the figure was 21.8%; with `N#CC=CS(=O)(=O)c1ccc(Cl)cc1`, 5.95%; with `Cc1c(C#N)c(NC(=O)CCl)n(C2CCCCC2)c1C`, 15.6%.
Take `Cc1nc(S(=O)(=O)F)[nH]c1C.Cl`: the Inhibition % is recorded as 6.55%.
With `Cn1cc(C=C2N=C(c3cccc(Cl)c3)OC2=O)cn1` the figure was 2.2%.
With `Cc1cccc(OCCNC(=O)CCl)c1`, the Inhibition % came out at 12.5%.
With `Cc1ccc(-c2noc(CN3C(=O)CCC3=O)n2)cc1` the figure was 0.305%; with `Cc1cccc(C2CO2)c1` (centres unmarked), 7.63%; with `CC1(C)OB(CC2CC3(CCOCC3)C2)OC1(C)C`, 3.09%.
With `C#CCNS(=O)(=O)C=Cc1ccc(Cl)cc1` the figure was 4.44%.
With `C=CC(=O)N[C@H]1C[C@H](c2ccccc2C)C1` the figure was 9.78%; with `Cc1ccc(S(=O)(=O)n2nc(O)cc2N)cc1`, 12.4%; with `O=C(CCl)c1ccc2c(c1)COC2`, 72.7%.
Regarding `N#Cc1cc(N2CCCC(F)C2)ccn1` (centres unmarked), the Inhibition % was determined as 8.69%.
Turning to `O=C(Sc1cccc2cccnc12)N1CCOCC1`, the Inhibition % is 10.7%.
With `O=C1NC2CCCCCC12` (centres unmarked) the figure was 9.84%.
In the case of `Cn1cc(C=C(C#N)c2ccc(C(F)(F)F)cn2)cn1`, the Inhibition % was -13.2%.
With `O=C(Nc1ccccc1)C1CCN(C(=O)CCl)CC1` the figure was 12.6%; with `CC1CC(Nc2ccc(Cl)c(C(N)=O)c2)C(=O)O1` (centres unmarked), 5.86%.
To `CC1(O)CCCN(C(=O)CCN2C(=O)CCC2=O)C1` (centres unmarked) belongs 3.32%.
With `CCOC(=O)c1cc(B2OC(C)(C)C(C)(C)O2)[nH]n1` the figure was 2.66%; with `O=C(CN1CCSC1=O)Nc1cnc2ccccc2c1`, 3.33%.
For `C=CC(=O)NC1COc2c(Cl)cccc21` (centres unmarked), the Inhibition % is listed as 10.4%.
In the case of `OC(CCC1CO1)c1ccccc1` (centres unmarked), the Inhibition % was 8.56%.
To `CN(C)C=CC(=O)c1cccnc1` belongs 7.32%; to `CC(C)NC(=O)C(C#N)=Cc1cncn1C(C)C`, 0.108%; to `C=CC(=O)N1CCC(C(=O)NCC(F)(F)F)C1` (centres unmarked), 4.08%.
Take `CC1(C)OB(c2cc(F)c3c(c2)CC(=O)N3)OC1(C)C`: the Inhibition % came out at 9.79%.
Take `Cc1cc(C)n(C(C)CC(=O)Nc2cccc(B(O)O)c2)n1` (centres unmarked): the Inhibition % is -1.61%.
To `C=CC(=O)N1CCOCC1COC` (centres unmarked) belongs 7.61%; to `Cn1cnc(NS(=O)(=O)c2ccc(S(=O)(=O)F)cc2)n1`, 5.05%; to `C=CC(=O)N[C@@H]1CCCOC1`, 4.38%.
Regarding `COc1cccc(N2CCN(CCS)CC2)c1.Cl.Cl`, the Inhibition % was 23.6%.
As to `C=CCNC(=O)C(C#N)=CC=Cc1ccccc1`, the Inhibition % is reported as 4.25%.
With `CC(C)(C)OC(=O)n1c(B2OC(C)(C)C(C)(C)O2)cc2ccccc21` the figure was 5.05%; with `Cc1ccc2cc(B(O)O)ccc2n1`, 2.94%; with `CCN(CC)C(=O)Oc1ccc(N2CCCC2)cc1`, -3.98%.
Consider `O=C(Cc1ccc2c(c1)CCO2)Nc1cccc(S(=O)(=O)F)c1`, for which the Inhibition % came to 94.3%.
Regarding `O=C1OC(c2ccc(F)c(F)c2)=NC1=Cc1csnn1`, the Inhibition % was determined as 4.11%.
As for `CC1CC(Nc2ccc3c(c2)CCCC(=O)N3)C(=O)O1` (centres unmarked), the Inhibition % worked out at 10.7%.
As for `N#Cc1ccc(NC2CCc3ccccc32)cn1` (centres unmarked), the Inhibition % was found to be 18.8%.
As to `O=C(c1cccnc1S)N1CCOC2(CCOCC2)C1`, the Inhibition % is on record as -0.763%.
To `CN(C)c1ccc(NS(=O)(=O)C=Cc2ccccc2)cn1` belongs 69.9%.
With `CCCn1nc2c(cc1=O)CN(C1CC(C)OC1=O)CC2` (centres unmarked) the figure was 86.8%; with `C=CC(=O)NC(=O)NC1CCC1`, 5.59%.
To `Cl.ClCCN1CCCC1` belongs -2.21%; to `CC1(C)OB(c2cccnc2)OC1(C)C`, 3.19%; to `CN(C)S(=O)(=O)c1ccc2c(c1)CCCN2C(=O)CCl`, 8.14%.
Regarding `NS(=O)(=O)c1ccc(S)nc1`, the Inhibition % is recorded as 22.6%.
On to `CSc1ccnc(C#N)c1`, for which the Inhibition % was found to be 16.2%.
Consider `C=CC(=O)N1Cc2ccccc2OC(C)(C)C1`, for which the Inhibition % was 13.6%.
